{"source": "the RNAGym collection of RNA variant scans (doi:10.1073/pnas.2313332121)", "parents": {"B1": {"name": "TPR 5TU (parent)", "chain": "GGAUCUUCUCGAUCUAACAAAAAAGACAAAUCUGCCACAAAGCUUGAGAGCAUCUUCGGAUGCAGAGGCGGCAGCCUUCGGUGGCGCGAUAGCGCCAACGUUCUCAACUAUGACACGCAAAACGCGUGCUCCGUUGAAUGGAGUUUAUCAUG"}}, "note": "Variants at the floor of the assay are shown more often than the library holds them.", "data": [{"variants_of": "B1", "test": "polymerase ribozyme fitness, log enrichment relative to wild type (log ratio); higher = more active; in vitro selection for triplet polymerase activity", "method_in_brief": "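Mutant libraries of each subunit of a heterodimeric triplet polymerase ribozyme were built by PCR and transcribed. Each library went through one round of in vitro selection in triplicate: annealing with biotinylated primer, partner subunit and triplets, frozen incubation at −7 °C, gel excision of extended constructs, streptavidin-bead capture and RT-PCR. Input and output libraries were Illumina-sequenced; only genotypes with ≥10 input reads and ≥1 read per output were kept. Fitness is log2(genotype enrichment/wild-type enrichment), using inverse-variance-weighted replicate averages.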", "values": [{"variant": "C54U G84C G100C C108A A113U G141U", "polymerase ribozyme fitness (log ratio)": "≤ -4.2"}, {"variant": "C54U G84U", "polymerase ribozyme fitness (log ratio)": -2.22}, {"variant": "C54U G86A C96U C105U C129G", "polymerase ribozyme fitness (log ratio)": "≤ -4.2"}, {"variant": "C54U G86C", "polymerase ribozyme fitness (log ratio)": -3.47}, {"variant": "C54U G86C A91U A137U", "polymerase ribozyme fitness (log ratio)": "≤ -4.2"}, {"variant": "C54U G86C A138C G140A A150G", "polymerase ribozyme fitness (log ratio)": "≤ -4.2"}, {"variant": "C54U G86C G112U", "polymerase ribozyme fitness (log ratio)": "≤ -4.2"}, {"variant": "C54U G86U", "polymerase ribozyme fitness (log ratio)": -1.78}, {"variant": "C54U G86U G100A C132G U148G", "polymerase ribozyme fitness (log ratio)": "≤ -4.2"}, {"variant": "C54U G88A A89U C95A C99U U146G U151A", "polymerase ribozyme fitness (log ratio)": "≤ -4.2"}, {"variant": "C54U G92A", "polymerase ribozyme fitness (log ratio)": -3}, {"variant": "C54U G92A A115C A138C", "polymerase ribozyme fitness (log ratio)": "≤ -4.2"}, {"variant": "C54U G92C", "polymerase ribozyme fitness (log ratio)": -1.07}, {"variant": "C54U G92C A121U", "polymerase ribozyme fitness (log ratio)": -0.244}, {"variant": "C54U G92U A147U", "polymerase ribozyme fitness (log ratio)": 0.0812}, {"variant": "C54U G100A U101A", "polymerase ribozyme fitness (log ratio)": "≤ -4.2"}, {"variant": "C54U G124C", "polymerase ribozyme fitness (log ratio)": -0.768}, {"variant": "C54U G136A", "polymerase ribozyme fitness (log ratio)": 0.306}, {"variant": "C54U U55A A91U C105G", "polymerase ribozyme fitness (log ratio)": "≤ -4.2"}, {"variant": "C54U U55C C72U C87A", "polymerase ribozyme fitness (log ratio)": "≤ -4.2"}, {"variant": "C54U U55G C85A C103U", "polymerase ribozyme fitness (log ratio)": "≤ -4.2"}, {"variant": "C54U U56A C118U", "polymerase ribozyme fitness (log ratio)": -0.674}, {"variant": "C54U U56A G71A A107C A150C", "polymerase ribozyme fitness (log ratio)": "≤ -4.2"}, {"variant": "C54U U56A G86A U102A C116A", "polymerase ribozyme fitness (log ratio)": -2.55}, {"variant": "C54U U56A G133C", "polymerase ribozyme fitness (log ratio)": -1.7}, {"variant": "C54U U56C A73U", "polymerase ribozyme fitness (log ratio)": -1.06}, {"variant": "C54U U56C C93U A150U", "polymerase ribozyme fitness (log ratio)": 0.278}, {"variant": "C54U U61A A106G G152C", "polymerase ribozyme fitness (log ratio)": "≤ -4.2"}, {"variant": "C54U U61A C76U U82A G126A", "polymerase ribozyme fitness (log ratio)": "≤ -4.2"}, {"variant": "C54U U61A G68A A120C G126C G140U", "polymerase ribozyme fitness (log ratio)": "≤ -4.2"}, {"variant": "C54U U61G G71A A91G", "polymerase ribozyme fitness (log ratio)": "≤ -4.2"}, {"variant": "C54U U77A C87A A97G A107G G140U", "polymerase ribozyme fitness (log ratio)": "≤ -4.2"}, {"variant": "C54U U77C G88A C96U A106C", "polymerase ribozyme fitness (log ratio)": "≤ -4.2"}, {"variant": "C54U U77C G92A", "polymerase ribozyme fitness (log ratio)": "≤ -4.2"}, {"variant": "C54U U77G A121C", "polymerase ribozyme fitness (log ratio)": "≤ -4.2"}, {"variant": "C54U U77G G83C A150U", "polymerase ribozyme fitness (log ratio)": "≤ -4.2"}, {"variant": "C54U U78A", "polymerase ribozyme fitness (log ratio)": "≤ -4.2"}, {"variant": "C54U U78A C85G C118U A120C U148G A150U", "polymerase ribozyme fitness (log ratio)": "≤ -4.2"}, {"variant": "C54U U78G C96G A113U", "polymerase ribozyme fitness (log ratio)": "≤ -4.2"}, {"variant": "C54U U82G C95A A119G", "polymerase ribozyme fitness (log ratio)": -2.04}, {"variant": "C54U U144A", "polymerase ribozyme fitness (log ratio)": -0.258}, {"variant": "C54U U148C", "polymerase ribozyme fitness (log ratio)": -1.84}, {"variant": "C54U U151C", "polymerase ribozyme fitness (log ratio)": -3.65}, {"variant": "U55A A60C A66C C96U U102C C118A", "polymerase ribozyme fitness (log ratio)": "≤ -4.2"}, {"variant": "U55A A60C G62A G81A C85U G133C", "polymerase ribozyme fitness (log ratio)": "≤ -4.2"}, {"variant": "U55A A60U U101G", "polymerase ribozyme fitness (log ratio)": -0.433}, {"variant": "U55A A64C", "polymerase ribozyme fitness (log ratio)": "≤ -4.2"}, {"variant": "U55A A64C G84A G92U U145G", "polymerase ribozyme fitness (log ratio)": "≤ -4.2"}, {"variant": "U55A A64G G84A C93G A137G A142U", "polymerase ribozyme fitness (log ratio)": "≤ -4.2"}, {"variant": "U55A A66C", "polymerase ribozyme fitness (log ratio)": "≤ -4.2"}, {"variant": "U55A A66U C75U C79G G86A C105U A106U A119U A122U G124U G141A", "polymerase ribozyme fitness (log ratio)": "≤ -4.2"}, {"variant": "U55A A66U C79U G80C C87G C116U U145G", "polymerase ribozyme fitness (log ratio)": "≤ -4.2"}, {"variant": "U55A A73C C87G", "polymerase ribozyme fitness (log ratio)": "≤ -4.2"}, {"variant": "U55A A73C C87U G92A", "polymerase ribozyme fitness (log ratio)": -2.04}, {"variant": "U55A A73U C75U C93U G100A U139A U144G", "polymerase ribozyme fitness (log ratio)": "≤ -4.2"}, {"variant": "U55A A89G", "polymerase ribozyme fitness (log ratio)": -1.16}, {"variant": "U55A A89G U148G", "polymerase ribozyme fitness (log ratio)": "≤ -4.2"}, {"variant": "U55A A91C G143U", "polymerase ribozyme fitness (log ratio)": "≤ -4.2"}, {"variant": "U55A A91G", "polymerase ribozyme fitness (log ratio)": -2.86}, {"variant": "U55A A91G G92A", "polymerase ribozyme fitness (log ratio)": "≤ -4.2"}, {"variant": "U55A A91G U102G A150C", "polymerase ribozyme fitness (log ratio)": "≤ -4.2"}, {"variant": "U55A A91U C114U", "polymerase ribozyme fitness (log ratio)": "≤ -4.2"}, {"variant": "U55A A91U G136A", "polymerase ribozyme fitness (log ratio)": "≤ -4.2"}, {"variant": "U55A A91U G143A", "polymerase ribozyme fitness (log ratio)": "≤ -4.2"}, {"variant": "U55A A98U A110U C131G", "polymerase ribozyme fitness (log ratio)": "≤ -4.2"}, {"variant": "U55A A106C C125G", "polymerase ribozyme fitness (log ratio)": -1.63}, {"variant": "U55A A107G A138C C149U", "polymerase ribozyme fitness (log ratio)": "≤ -4.2"}, {"variant": "U55A A113U A121G U139G G141U U144A", "polymerase ribozyme fitness (log ratio)": "≤ -4.2"}, {"variant": "U55A A115G G124U", "polymerase ribozyme fitness (log ratio)": -0.932}, {"variant": "U55A A115U U127G U135A U145A", "polymerase ribozyme fitness (log ratio)": -1.32}, {"variant": "U55A A121C", "polymerase ribozyme fitness (log ratio)": -0.369}, {"variant": "U55A A121U", "polymerase ribozyme fitness (log ratio)": -0.372}, {"variant": "U55A A122G", "polymerase ribozyme fitness (log ratio)": -0.237}, {"variant": "U55A A142U", "polymerase ribozyme fitness (log ratio)": -0.464}, {"variant": "U55A A150C", "polymerase ribozyme fitness (log ratio)": -3.6}, {"variant": "U55A C57A", "polymerase ribozyme fitness (log ratio)": 0.142}, {"variant": "U55A C57A C95U", "polymerase ribozyme fitness (log ratio)": -0.372}, {"variant": "U55A C57G A89U G136C", "polymerase ribozyme fitness (log ratio)": -3.69}, {"variant": "U55A C57G C85A C108A C114G G152A", "polymerase ribozyme fitness (log ratio)": "≤ -4.2"}, {"variant": "U55A C57G G88C U90G C116U U127G", "polymerase ribozyme fitness (log ratio)": "≤ -4.2"}, {"variant": "U55A C57U C85G G94C C99G C149G", "polymerase ribozyme fitness (log ratio)": "≤ -4.2"}, {"variant": "U55A C63G A91U G92A G100C", "polymerase ribozyme fitness (log ratio)": "≤ -4.2"}, {"variant": "U55A C63U A142U", "polymerase ribozyme fitness (log ratio)": -0.552}, {"variant": "U55A C63U C85U C105U", "polymerase ribozyme fitness (log ratio)": 0.719}]}]}
